In all, about 150,000 compounds went through this assay and about 180 (0.12%) were called active. Inconclusive means that the source gave no clear call. Such entries were picked first, then a sample of the others. Calls come from the whole dose curve; as a rule, active = well fitted cell-killing curve with a large enough effect; inconclusive = small, poorly fitted or top-dose-only effect, or effect the other way; inactive = flat fitted curve, though single readings scatter. Potencies of inconclusive entries are doubtful fits and often do not repeat.
Test: GF-AFC viability counterscreen for inhibitors of alpha-synuclein gene (SNCA) expression; note: nearly all actives have a fitted effect of over 30% in size;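 for activity change, negative = cytotoxicity: 0% = DMSO-treated cells and -100% = medium-only wells without cells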
Settings: HEK-293-SNCA-luc viability, GF-AFC fluorescence, 24 h; activity change, negative = cytotoxicity: at 57.1 µM (top of the series) unless noted
Procedure, shortened: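 Cytotoxicity counterscreen: after 24 h compound treatment of genome-edited SNCA-luciferase HEK-293 cells, live-cell protease substrate GF-AFC read by fluorescence after 30 min; activity scaled between DMSO (0%) and medium-only (-100%), curves Hill-fitted.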
With `CC(C)OC(=O)CCCC=CC[C@@H]1[C@H](C=C[C@@H](O)COc2cccc(C(F)(F)F)c2)[C@H](O)C[C@@H]1O` the Potency was inconclusive: 24.1 µM [cytotoxic, single point]. For `C#CCNC(=O)[C@@H]1Cc2cn(Cc3cc(C)on3)c3cccc(c23)[C@H](CC(C)C)N1`, the Potency was “inactive”. In the case of `O=C(NC1CCCN(c2cc(-c3ccc(F)cc3)[nH]n2)C1)c1nccc2ccccc12` (stereo unspecified), the Potency is reported as inconclusive: 25.1 µM [cytotoxic, partial curve, poor fit]. For `CC1=C[C@@H](CNS(C)(=O)=O)[C@H](C(C)C)C[C@H]1Cc1nnc(-c2ccncc2)o1`, the Potency was “inactive”. With `Cc1nn(-c2ccc(C(C)(C)C)cc2)c(C)c1[C@@H]1C=C[C@@H](NC(=O)NC(C)C)C1` the Potency was inconclusive: 35.5 µM [cytotoxic, single point]. In the case of `CC(=O)Nc1ccc(NC(=O)c2cc3n(n2)CC(c2ccc(Br)cc2)OC3)cc1` (stereo unspecified), the Potency is reported as “inactive”. For `Cn1ncc2c(C(=O)NCc3ccc(C(F)(F)F)cc3)cc(-c3ccc(Cl)cc3Cl)nc21`, the Potency was inconclusive: 39.8 µM [cytotoxic, single point]. With `Cc1ccccc1NC(=O)Cn1c(=O)n(CC2CCC(C(=O)NCCc3ccccc3)CC2)c(=O)c2ccccc21` (stereo unspecified) the Potency was inconclusive: 39.8 µM [cytotoxic, single point]. For `O=C(NC1CC1)c1c[nH]c2cccnc12`, the Potency was inconclusive: 14.1 µM [cytotoxic, single point]. With `CNC(=O)[C@@H]1CN(C(=O)c2sccc2C)C[C@H]1c1nc(COC)no1` the Potency was “inactive”. In the case of `Cc1ccc(-c2nc3scc(CCNS(=O)(=O)c4ccc(F)c(C)c4)n3n2)cc1`, the Potency is reported as inconclusive: 1.78 µM [cytotoxic, full curve, poor fit]. In the case of `COc1cccc(Cn2c(=O)c(-c3cc(F)cc(F)c3)nc3cnc(N4CCNCC4)nc32)c1`, the Potency is reported as inconclusive: 20 µM [rising, single point]. With `CN(C)c1cccc(-c2cnc3[nH]cc(CC(=O)N4CCOCC4)c3c2)c1` the Potency was inconclusive: 31.6 µM [cytotoxic, partial curve, poor fit]. With `Cc1cccnc1C(=O)N1C[C@@H](CO)[C@H](c2ccccn2)C1` the Potency was “inactive”. In the case of `CC(C)C[C@@H]1NC(=O)[C@@H]2C[C@@]34C[C@@H]5[C@@]6(C)CCCC(C)(C)C6CC[C@@]5(C)N(c5ccccc53)[C@H]4N2C1=O` (stereo partly specified), the Potency is reported as inconclusive: 18.4 µM [cytotoxic, single point]. For `Nc1nc(N)c2nc(-c3ccccc3)c(N)nc2n1`, the Potency was inconclusive: 31.6 µM [rising, partial curve]. With `O=C(NC1(C(F)(F)F)N=C(c2ccccc2)N(C2CCCCC2)C1=O)c1ccccc1F` (stereo unspecified) the Potency was inconclusive: 2 µM [cytotoxic, full curve, poor fit]. With `CC(=O)N1CCc2c(sc(NC(=O)CSc3ccc(C)cc3)c2-c2nc3ccccc3s2)C1` the Potency was inconclusive: 15.8 µM [rising, partial curve, poor fit]. With `CO[C@H]1[C@H](NC(=O)c2cn(C)c3ccccc23)c2ccccc2C12CCNCC2` the Potency was inconclusive: 31.6 µM [cytotoxic, single point]. In the case of `Cc1cc2c(c(=O)n(-c3ccccc3)c(=O)n2CC(=O)Nc2ccc3c(c2)OCO3)n1C`, the Potency is reported as inconclusive: 11.2 µM [cytotoxic, partial curve]. In the case of `Cc1ccc(C)c(NS(=O)(=O)c2ccc3c(c2)CCCN3C(=O)C2CCC2)c1`, the Potency is reported as inconclusive: 39.8 µM [cytotoxic, single point]. In the case of `COc1ccc(-c2ccc3c(n2)CN(Cc2ccc(F)cc2)C(=O)CO3)cc1`, the Potency is reported as inconclusive: 31.6 µM [cytotoxic, partial curve, poor fit]. In the case of `CSc1ncc(C(=O)NCc2cccc(Br)c2)c(-c2ccccc2)n1`, the Potency is reported as inconclusive: 0.501 µM [rising, partial curve, poor fit]. With `CCOc1ccc(-c2cc3c(=O)n(CCNC(=O)Cc4ccccc4C)ccn3n2)cc1` the Potency was “inactive”. With `COc1cc(C)ccc1OCc1cc(C(=O)NCc2n[nH]c3c2CCC3)no1` the Potency was “inactive”. With `CN(C)c1ncc2nc(-c3ccc(F)cc3)c(=O)n(C3CC3)c2n1` the Potency was inconclusive: 14.1 µM [rising, partial curve]. With `CCc1ccccc1N1CC(c2nc3ccccc3n2CCC2CCCCC2)CC1=O` (stereo unspecified) the Potency was inconclusive: 28.2 µM [cytotoxic, single point]. With `CC(=O)Nc1ccc(CN2CC(Oc3ccc(F)c(C)c3)C2)cc1` the Potency was “inactive”. For `CN(Cc1cnccn1)C(=O)c1csc2nc(-c3cccc(C(F)(F)F)c3)cn12`, the Potency was inconclusive: 35.5 µM [cytotoxic, single point]. With `COc1ccc(C(=O)Nc2ccc3c(c2)N(C)C(=O)c2ccccc2S3)cc1OC` the Potency was inconclusive: 35.5 µM [cytotoxic, partial curve]. For `CC(C)CNC(=O)c1cc(-c2ccccc2F)cc2c1OCCN2Cc1cccnc1`, the Potency was inconclusive: 31.6 µM [cytotoxic, single point]. With `COc1ccc(-c2nc(CSc3nc4ncccc4[nH]3)c(C)o2)cc1OC` the Potency was inconclusive: 39.8 µM [cytotoxic, single point]. With `CN(Cc1cccc(CCN)c1)Cc1cnn(-c2ccc(F)cc2)c1` the Potency was inconclusive: 39.8 µM [cytotoxic, partial curve, poor fit]. With `COc1ccc(-c2[nH]c(-c3ccccc3)nc2SCC(=O)Nc2ccc3c(c2)OCO3)cc1` the Potency was inconclusive: 28.2 µM [cytotoxic, partial curve, poor fit]. With `COc1ccc(C(=O)Nc2ccc(-c3noc([C@@H]4CCCN4Cc4c[nH]c5ccccc45)n3)cn2)cc1` the Potency was inconclusive: 39.8 µM [cytotoxic, single point]. For `CCn1cc(C(=O)NCc2ccccc2)c(=O)c2cc(S(=O)(=O)N3CCOCC3)ccc21`, the Potency was inconclusive: 17.8 µM [rising, single point]. For `COc1ccc(C(=O)N2CCC(Oc3cccc(F)c3)C2)cn1` (stereo unspecified), the Potency was inconclusive: 28.2 µM [cytotoxic, partial curve, poor fit]. With `COc1ccc(-n2c(=O)c3c(C)c(C)sc3n(Cc3ccc(F)cc3)c2=O)c(OC)c1` the Potency was inconclusive: 5.01 µM [cytotoxic, partial curve]. For `CCc1ccc(OCC2c3cc(OC)c(OC)cc3CCN2C(=O)Cc2ccc(OC)c(OC)c2)cc1` (stereo unspecified), the Potency was inconclusive: 14.1 µM [cytotoxic, partial curve]. With `O=C(Cc1c[nH]c2ncc(-c3cccnc3)cc12)N1CCN(c2ccccn2)CC1` the Potency was “inactive”. With `O=C(NCc1ccc2c(c1)OCO2)c1nc(-c2ccccc2)c2ccccn12` the Potency was “inactive”. For `COc1cccc(CC(=O)N2CCC(c3n[nH]c(=O)n3-c3ccc(C)cc3)CC2)c1`, the Potency was “inactive”. For `O=C(NCc1cccc(Cl)c1)C1CCCN(c2ccnc3ccnn23)C1` (stereo unspecified), the Potency was “inactive”. In the case of `CCOc1ccc(Nc2c(S(=O)(=O)c3ccccc3)cnc3ccc(CC)cc23)cc1`, the Potency is reported as inconclusive: 28.2 µM [cytotoxic, partial curve, poor fit]. With `Cn1ncc2c(NCCc3cn4ccccc4n3)nc(C3CCCC3)nc21` the Potency was “inactive”. For `COC[C@@H]1[C@H](C(=O)N2CCN(c3ccc(F)cc3)CC2)CCC(=O)N1C`, the Potency was inconclusive: 0.708 µM [cytotoxic, partial curve, poor fit]. For `COc1ccc(C(=O)N[C@@H]2CCC[C@@H]2C(=O)N2CCN(c3cccc(Cl)c3)CC2)cn1`, the Potency was inconclusive: 8.91 µM [cytotoxic, partial curve, poor fit]. In the case of `O=C(c1ccco1)N1CCC2(CC1)CN(c1ncccn1)C2`, the Potency is reported as inconclusive: 7.08 µM [cytotoxic, single point]. With `Cc1cccc(NC(=O)CCS(=O)(=O)c2cc(Br)cc3c2N(C(=O)C2CC2)CC3)c1C` the Potency was “inactive”. For `c1ccc(-c2cc3c(ccn3Cc3ccncc3)c(N3CCOCC3)n2)cc1`, the Potency was “inactive”. For `COc1cccc(CN2CCOC3(CCN(Cc4ccc(OC)nc4)CC3)C2=O)c1`, the Potency was inconclusive: 56.2 µM [cytotoxic, partial curve, poor fit]. With `COc1cccc(CN2CCOC3CCN(C(=O)c4ccccc4)CC3C2=O)c1` (stereo unspecified) the Potency was “inactive”. With `C=CC(=O)Nc1cc(Nc2ncc(Cl)c(-c3c[nH]c4ccccc34)n2)c(OC)cc1N(C)CCN(C)C` the Potency was inconclusive: 0.299 µM [cytotoxic, full curve, poor fit]. In the case of `COc1ccc(CN2CCc3nc(N4CCOCC4)[nH]c(=O)c3CC2)cc1Br`, the Potency is reported as inconclusive: 7.08 µM [cytotoxic, single point]. In the case of `CSc1cccc(NC(=O)c2ccc3c(c2)CCCN3S(C)(=O)=O)c1`, the Potency is reported as inconclusive: 28.2 µM [cytotoxic, single point]. For `Cc1ccc(CNC(=O)CN2C(=O)COc3ccc(S(=O)(=O)N4CCC(C)CC4)cc32)cc1`, the Potency was inconclusive: 14.1 µM [cytotoxic, partial curve, poor fit]. For `CCN1C(=O)c2ccccc2S(=O)(=O)c2ccc(C(=O)NCc3ccc(F)cc3)cc21`, the Potency was “inactive”. For `O=C1CN(S(=O)(=O)Cc2ccccc2)CC2(CCCCC2)N1CC1CC1`, the Potency was inconclusive: 2.51 µM [cytotoxic, full curve, poor fit]. With `Cc1cn2c(=O)c(S(=O)(=O)NCCc3ccc(Cl)cc3)c(C)nc2s1` the Potency was “inactive”. In the case of `O=C(Nc1ccc(S(=O)(=O)C(F)(F)F)cc1)C1=CCN(c2ncccc2C(F)(F)F)CC1`, the Potency is reported as inconclusive: 33.6 µM [cytotoxic, single point]. For `O=C(NC1CCN(C(=O)c2ccc(-c3cccs3)cc2)CC1)c1ccccn1`, the activity change, negative = cytotoxicity was inconclusive: -17.3% [at 12.5 µM].

Reference: PubChem BioAssay AID1671193 (National Center for Advancing Translational Sciences (NCATS), 2021)
Potency is the fitted concentration of half-maximal effect; tags give direction and shape of the fitted curve.
